Assay results: PubChem BioAssay AID1460 (National Center for Advancing Translational Sciences (NCATS), 2008)
Out of some 270,000 compounds screened, about 5,800 (2.1%) were called active. Inconclusive means that the source gave no clear call. Such entries were picked first, then a sample of the others. The call rests on the fitted dose curve; in most records, active means well fitted inhibition curve with a large enough effect; inconclusive means small, poorly fitted or top-dose-only effect; inactive means flat fitted curve, though single readings scatter. Where the call is inconclusive, the potency comes from a doubtful curve fit.

biological target: Microtubule-associated protein tau (Homo sapiens) (UniProt P10636); test: qHTS for Inhibitors of Tau Fibril Formation, Thioflavin T Binding; conditions: recombinant tau K18 P301L (four-repeat tau fragment), heparin-induced fibrillization, ThT fluorescence; series mostly up to 57.4 µM; activity, negative = inhibition: at the top concentration; further: nearly all actives have a fitted effect of over 55% in size
Chain of UniProt P10636 (P10636 whole entry, looked up, the tested form may be a part): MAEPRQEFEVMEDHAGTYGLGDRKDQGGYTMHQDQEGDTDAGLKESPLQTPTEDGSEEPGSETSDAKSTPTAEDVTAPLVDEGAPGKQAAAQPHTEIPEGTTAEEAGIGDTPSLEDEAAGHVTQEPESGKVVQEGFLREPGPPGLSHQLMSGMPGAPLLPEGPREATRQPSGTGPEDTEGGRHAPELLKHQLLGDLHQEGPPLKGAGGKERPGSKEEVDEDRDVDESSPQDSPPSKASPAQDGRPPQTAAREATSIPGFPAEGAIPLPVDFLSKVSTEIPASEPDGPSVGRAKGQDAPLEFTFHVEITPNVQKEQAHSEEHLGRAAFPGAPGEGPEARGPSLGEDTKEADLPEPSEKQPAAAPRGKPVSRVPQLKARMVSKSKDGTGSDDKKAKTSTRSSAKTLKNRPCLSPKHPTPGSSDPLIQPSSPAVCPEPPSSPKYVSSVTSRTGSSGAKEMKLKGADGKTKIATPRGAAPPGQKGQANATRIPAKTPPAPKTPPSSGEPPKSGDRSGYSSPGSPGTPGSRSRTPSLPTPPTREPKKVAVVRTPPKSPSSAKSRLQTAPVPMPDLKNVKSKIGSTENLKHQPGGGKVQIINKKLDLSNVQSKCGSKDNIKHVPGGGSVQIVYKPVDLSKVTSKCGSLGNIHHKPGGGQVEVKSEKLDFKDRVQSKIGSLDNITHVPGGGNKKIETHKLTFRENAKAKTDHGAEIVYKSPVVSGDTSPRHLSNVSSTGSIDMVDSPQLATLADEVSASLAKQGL
Procedure, shortened: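 Heparin-induced (20 uM) aggregation of recombinant human K18 P301L tau, 15 uM unlabeled with 0.24 uM labeled, pH 7 acetate buffer, 6 hr at 37 C with compound. Fibrils quantified by 30 uM ThT fluorescence after 1 hr ambient incubation.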
On the % scale 0 is the no-effect control and ±100 the full control effect; potency means the concentration at half of the fitted maximal effect; tags describe the fitted curve by direction and shape.

Row | SMILES | Potency | activity, negative = inhibition
1 | Cc1nc(Cc2nnc(SCc3nc(N)nc(Nc4ccccc4C)n3)o2)cs1 | inconclusive: 28.2 µM [inhibitor, single point] | 
2 | COc1cc(/C=C2\SC(=S)N(CC(=O)NC(C)(C)C)C2=O)cc(OC)c1OC | inconclusive: 35.5 µM [inhibitor, single point] | 
3 | COc1ccccc1CNC(=O)c1ccc2nc(-c3ccccc3)c(-c3ccccc3)nc2c1 |  | inactive: -1.43%
4 | COc1ccccc1C1CC(=O)Nc2cc3c(cc21)OCCO3 (stereo not given) |  | inactive: -5.56%
5 | Cc1c(Cl)cccc1NC(=O)Cn1c(=O)nc(-c2ccccc2)c2ccccc21 |  | inactive: 7.9%
6 | Cc1ccc(CNC(=O)c2ccc3c(=O)n4c(-c5ccc(C)cc5)csc4nc3c2)cc1 |  | inactive: 4.95%
7 | CCN1C(=O)/C(=C2/Sc3ccc(OC)cc3N2C)SC1=Nc1cccc(O)c1 | inconclusive: 7.94 µM [inhibitor, partial curve] | 
8 | O=C(Nc1ccc(Cl)cc1)c1cc2nc(-c3ccco3)cc(C(F)(F)F)n2n1 | inconclusive: 1.78 µM [inhibitor, full curve] | 
9 | Cc1oc(C)c2c(=O)cc(-c3ccc4c(c3)OCO4)cc(OC(=O)c3ccccc3Cl)c12 | inconclusive: 12.6 µM [inhibitor, partial curve] | 
10 | O=C(CNC(=O)C(c1ccccc1)c1ccccc1)N/N=C/c1ccc(O)cc1O | inconclusive: 28.2 µM [inhibitor, partial curve] | 
11 | Clc1ccc(-c2csc(NNC3=NCCCCC3)n2)cc1 | active: 31.6 µM | 
12 | CC(N)(Cc1ccc(O)c(O)c1)C(=O)O (stereo not given) | active: 3.98 µM | 
13 | CCCCCOc1ccc(/C=C/C(=O)Nc2sc(C(C)=O)c(C)c2C(=O)OCC)cc1OC |  | inactive: -2.23%
14 | O=C(CSc1cccc[n+]1[O-])c1ccc(-c2ccccc2)cc1 | inconclusive: 20 µM [inhibitor, single point] | 
15 | CCCCNc1nc(C)nc2c1nc(-c1ccccc1)n2CC1CCCN1CC (stereo not given) |  | inactive: 9.81%
16 | CCOC(=O)N1CCc2c(sc(NCc3ccc(OC)c(OC)c3OC)c2C(=O)Nc2ccc(OC)cc2OC)C1 | inconclusive: 28.2 µM [inhibitor, single point] | 
17 | O=C(N=Nc1c(O)[nH]c2ccccc12)c1ccc(CN2CCOCC2)cc1 | inconclusive: 28.2 µM [inhibitor, partial curve] | 
18 | C/C(=N\NC(=O)c1ccc(Br)cc1)c1cccc(NC(=O)c2cccnc2)c1 | inconclusive: 7.08 µM [inhibitor, partial curve] | 

Row | SMILES | Potency | activity, negative = inhibition
19 | COc1ccccc1CNC(=O)COc1ccc2c(c1)CCC2 | inconclusive: 31.6 µM [inhibitor, single point] | 
20 | CCOC(=O)c1sc2ncn(/N=C/c3ccc(O)cc3)c(=O)c2c1C | inconclusive: 2 µM [inhibitor, full curve] | 
21 | Nc1cc(=O)nc(SCC(=O)Nc2cccc(Cl)c2)n1CCc1ccccc1 |  | inactive: 5.32%
22 | Nc1ccc2nc(N3CCOCC3)sc2c1 | inconclusive: 28.2 µM [inhibitor, partial curve] | 
23 | COc1ccc(C(=O)NC(=S)N2CCN(c3ccc([N+](=O)[O-])cc3)CC2)cc1 | inconclusive: 8.91 µM [inhibitor, full curve] | 
24 | Cc1ccccc1-n1c(=O)cc(N2CCc3ccccc32)[nH]c1=O |  | inactive: -17%
25 | CC(=O)c1ccc(NC(=O)Nc2nnc(N3CCCC(C)C3)s2)cc1 (stereo not given) |  | inactive: -6.26%
26 | Nc1c2c(nc3sc4c(c13)CCCC4)-c1ccccc1CC2 | inconclusive: 5.01 µM [inhibitor, full curve] | 
27 | COc1ccc(NC(=O)Nc2ccc(N3CCOCC3)c3nonc23)c(OC)c1 | inconclusive: 35.5 µM [inhibitor, single point] | 
28 | Cc1ccccc1N=CC1=C(O)c2ccccc2C1=O | inconclusive: 15.8 µM [inhibitor, partial curve] | 
29 | COCC(C)N=C1NN=C(c2cccs2)C(CC(=O)O)S1 (stereo not given) | inconclusive: 39.8 µM [inhibitor, single point] | 
30 | O=C(O)c1cccc(N2CCCCS2(=O)=O)c1 |  | inactive: -8.04%
31 | Cc1ccc(SCC(=O)N2N=CCC2c2ccccc2)cc1 (stereo not given) |  | inactive: -9.42%
32 | CN(C)c1oc(/C=C/c2ccc(F)cc2)nc1C#N | inconclusive: 3.98 µM [inhibitor, full curve, poor fit] | 
33 | O=c1[nH]c2ccc(Cl)cc2c(-c2ccccc2)c1CN1CCOCC1 | inconclusive: 28.2 µM [inhibitor, single point] | 
34 | O=C1OC(/C=C/c2ccccc2)=NC/1=C/C=C/c1ccccc1 | active: 15.8 µM | 
35 | CCC(CC)NC(=O)CON=C1c2ccccc2-c2ccccc21 |  | inactive: 5.12%
